{
  "source": "the supplement of paper PMC8728848",
  "assay_in_all_cases": "glycan array binding signal (z-score within array); higher = stronger binding",
  "conditions_in_all_cases": "glycan notation: IUPAC condensed, linker removed",
  "key": {"[1]": {"molecular_target": "Gal6S(b1-4)Glc6S", "outline": "(§1)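 The Consortium for Functional Glycomics database supplied 3228 glycan arrays, of which those lacking an available protein sequence were dropped. The binding signal, a within-array Z-score, was averaged across arrays of the same protein sequence and across linkers. Negative scores can be read as non-binding.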"}, "[2]": {"molecular_target": "Gal6S(b1-4)GlcNAc", "outline": "as §1"}, "[3]": {"molecular_target": "Gal6S(b1-4)GlcNAc6S", "outline": "as §1"}, "[4]": {"molecular_target": "GalNAc(a1-3)Gal", "outline": "as §1"}, "[5]": {"molecular_target": "GalNAc(a1-3)GalNAc", "outline": "as §1"}, "[6]": {"molecular_target": "GalNAc(a1-3)GalNAc(b1-3)Gal(a1-4)Gal(b1-4)Glc", "outline": "as §1"}, "[7]": {"molecular_target": "GalNAc(a1-3)GalNAc(b1-3)Gal(a1-4)Gal(b1-4)GlcNAc", "outline": "as §1"}, "[8]": {"molecular_target": "GalNAc(b1-3)Gal", "outline": "as §1"}, "[9]": {"molecular_target": "GalNAc(b1-3)Gal(a1-4)Gal(b1-4)GlcNAc", "outline": "as §1"}, "[10]": {"molecular_target": "GalNAc(b1-3)Gal(a1-4)Gal(b1-4)GlcNAc(b1-3)Gal(b1-4)Glc", "outline": "as §1"}, "[11]": {"molecular_target": "GalNAc(b1-3)Gal(a1-6)Gal(b1-4)Glc", "outline": "as §1"}, "[12]": {"molecular_target": "GalNAc(b1-3)GalNAc", "outline": "as §1"}, "[13]": {"molecular_target": "GalNAc(b1-3)GlcNAc", "outline": "as §1"}, "[14]": {"molecular_target": "GalNAc(b1-4)Gal(b1-4)Glc", "outline": "as §1"}, "[15]": {"molecular_target": "GalNAc(b1-4)GlcNAc", "outline": "as §1"}, "[16]": {"molecular_target": "GalNAc(b1-4)GlcNAc(b1-2)Man", "outline": "as §1"}, "[17]": {"molecular_target": "GalNAc(b1-4)GlcNAc(b1-2)Man(a1-3)[GalNAc(b1-4)GlcNAc(b1-2)Man(a1-6)]Man(b1-4)GlcNAc(b1-4)GlcNAc", "outline": "as §1"}, "[18]": {"molecular_target": "GalNAc(b1-4)GlcNAc(b1-3)GalNAc(b1-4)GlcNAc", "outline": "as §1"}, "[19]": {"molecular_target": "GalNAc(b1-4)GlcNAc6S", "outline": "as §1"}, "[20]": {"molecular_target": "GalNAc(b1-6)GalNAc", "outline": "as §1"}, "[21]": {"molecular_target": "GalNAc3S(b1-4)GlcNAc", "outline": "as §1"}, "[22]": {"molecular_target": "GalNAc3S(b1-4)GlcNAc3S", "outline": "as §1"}, "[23]": {"molecular_target": "GalNAc3S(b1-4)[Fuc(a1-3)]GlcNAc", "outline": "as §1"}, "[24]": {"molecular_target": "GalNAc4S6S(b1-4)GlcNAc", "outline": "as §1"}, "[25]": {"molecular_target": "GalNAc6S(b1-4)GlcNAc", "outline": "as §1"}, "[26]": {"molecular_target": "Glc(a1-4)Glc", "outline": "as §1"}, "[27]": {"molecular_target": "Glc(a1-4)Glc(a1-4)Glc(a1-4)Glc", "outline": "as §1"}, "[28]": {"molecular_target": "Glc(a1-6)Glc(a1-6)Glc", "outline": "as §1"}, "[29]": {"molecular_target": "Glc(a1-6)Glc(a1-6)Glc(a1-6)Glc", "outline": "as §1"}, "[30]": {"molecular_target": "Glc(b1-4)Glc", "outline": "as §1"}, "[31]": {"molecular_target": "Glc(b1-6)Glc", "outline": "as §1"}, "[32]": {"molecular_target": "GlcA(b1-3)Gal", "outline": "as §1"}, "[33]": {"molecular_target": "GlcA(b1-3)GlcNAc", "outline": "as §1"}, "[34]": {"molecular_target": "GlcA(b1-6)Gal", "outline": "as §1"}, "[35]": {"molecular_target": "GlcA3S(b1-3)Gal(b1-4)GlcNAc(b1-2)Man", "outline": "as §1"}, "[36]": {"molecular_target": "GlcA3S(b1-3)Gal(b1-4)GlcNAc(b1-3)Gal(b1-4)Glc", "outline": "as §1"}, "[37]": {"molecular_target": "GlcNAc(a1-3)Gal(b1-4)GlcNAc", "outline": "as §1"}, "[38]": {"molecular_target": "GlcNAc(a1-4)Gal(b1-3)GlcNAc", "outline": "as §1"}, "[39]": {"molecular_target": "GlcNAc(a1-4)Gal(b1-4)GalNAc", "outline": "as §1"}, "[40]": {"molecular_target": "GlcNAc(a1-4)Gal(b1-4)GlcNAc", "outline": "as §1"}, "[41]": {"molecular_target": "GlcNAc(a1-4)Gal(b1-4)GlcNAc(b1-3)Gal(b1-4)Glc", "outline": "as §1"}, "[42]": {"molecular_target": "GlcNAc(a1-4)Gal(b1-4)GlcNAc(b1-3)Gal(b1-4)GlcNAc", "outline": "as §1"}, "[43]": {"molecular_target": "GlcNAc(a1-4)Gal(b1-4)GlcNAc(b1-3)Gal(b1-4)GlcNAc(b1-3)Gal(b1-4)GlcNAc", "outline": "as §1"}, "[44]": {"molecular_target": "GlcNAc(a1-4)Gal(b1-4)GlcNAc(b1-3)Gal(b1-4)[Fuc(a1-3)]GlcNAc(b1-3)Gal(b1-4)[Fuc(a1-3)]GlcNAc", "outline": "as §1"}, "[45]": {"molecular_target": "GlcNAc(a1-6)Gal(b1-4)GlcNAc", "outline": "as §1"}},
  "note": "This is one part of the list.",
  "data": [
    {"binder": "CBM40 CPF071 (Clostridium perfringens) (protein) MAHHHHHHVGTGSNDDDDKSPDPMLSSLGEYKDINLESSNASNITYDLEKYKNLDEGTIVVRFNSKDSKIQSLLGISNSKTKNGYFNFYVTNSRVGFELRNQKNEGNTQNGTENLVHMYKDVALNDGDNTVALKIEKNKGYKLFLNGKMIKEVKDTNTKFLNNIENLDSAFIGKTNRYGQSNEYNFKGNIGFMNIYNEPLGDDYLLSKTGETK", "values": [
      {"measurement": "glycan array binding signal (z-score)", "setting": "[1]", "value": 1.43},
      {"measurement": "glycan array binding signal (z-score)", "setting": "[2]", "value": -0.172},
      {"measurement": "glycan array binding signal (z-score)", "setting": "[3]", "value": -0.442},
      {"measurement": "glycan array binding signal (z-score)", "setting": "[4]", "value": -0.186},
      {"measurement": "glycan array binding signal (z-score)", "setting": "[5]", "value": -0.438},
      {"measurement": "glycan array binding signal (z-score)", "setting": "[6]", "value": 0.121},
      {"measurement": "glycan array binding signal (z-score)", "setting": "[7]", "value": -0.251},
      {"measurement": "glycan array binding signal (z-score)", "setting": "[8]", "value": -0.078},
      {"measurement": "glycan array binding signal (z-score)", "setting": "[9]", "value": -0.446},
      {"measurement": "glycan array binding signal (z-score)", "setting": "[10]", "value": -0.464},
      {"measurement": "glycan array binding signal (z-score)", "setting": "[11]", "value": -0.253},
      {"measurement": "glycan array binding signal (z-score)", "setting": "[12]", "value": 0.09},
      {"measurement": "glycan array binding signal (z-score)", "setting": "[13]", "value": -0.103},
      {"measurement": "glycan array binding signal (z-score)", "setting": "[14]", "value": -0.291},
      {"measurement": "glycan array binding signal (z-score)", "setting": "[15]", "value": -0.231},
      {"measurement": "glycan array binding signal (z-score)", "setting": "[16]", "value": -0.465},
      {"measurement": "glycan array binding signal (z-score)", "setting": "[17]", "value": 0.332},
      {"measurement": "glycan array binding signal (z-score)", "setting": "[18]", "value": -0.182},
      {"measurement": "glycan array binding signal (z-score)", "setting": "[19]", "value": -0.249},
      {"measurement": "glycan array binding signal (z-score)", "setting": "[20]", "value": -0.243},
      {"measurement": "glycan array binding signal (z-score)", "setting": "[21]", "value": -0.055},
      {"measurement": "glycan array binding signal (z-score)", "setting": "[22]", "value": -0.487},
      {"measurement": "glycan array binding signal (z-score)", "setting": "[23]", "value": -0.378},
      {"measurement": "glycan array binding signal (z-score)", "setting": "[24]", "value": 0.038},
      {"measurement": "glycan array binding signal (z-score)", "setting": "[25]", "value": 0.037},
      {"measurement": "glycan array binding signal (z-score)", "setting": "[26]", "value": -0.246},
      {"measurement": "glycan array binding signal (z-score)", "setting": "[27]", "value": -0.302},
      {"measurement": "glycan array binding signal (z-score)", "setting": "[28]", "value": 0.464},
      {"measurement": "glycan array binding signal (z-score)", "setting": "[29]", "value": -0.233},
      {"measurement": "glycan array binding signal (z-score)", "setting": "[30]", "value": 2.37},
      {"measurement": "glycan array binding signal (z-score)", "setting": "[31]", "value": -0.589},
      {"measurement": "glycan array binding signal (z-score)", "setting": "[32]", "value": -0.573},
      {"measurement": "glycan array binding signal (z-score)", "setting": "[33]", "value": 0.262},
      {"measurement": "glycan array binding signal (z-score)", "setting": "[34]", "value": -0.273},
      {"measurement": "glycan array binding signal (z-score)", "setting": "[35]", "value": -0.196},
      {"measurement": "glycan array binding signal (z-score)", "setting": "[36]", "value": -0.472},
      {"measurement": "glycan array binding signal (z-score)", "setting": "[37]", "value": -0.478},
      {"measurement": "glycan array binding signal (z-score)", "setting": "[38]", "value": -0.341},
      {"measurement": "glycan array binding signal (z-score)", "setting": "[39]", "value": 0.411},
      {"measurement": "glycan array binding signal (z-score)", "setting": "[40]", "value": -0.441},
      {"measurement": "glycan array binding signal (z-score)", "setting": "[41]", "value": -0.237},
      {"measurement": "glycan array binding signal (z-score)", "setting": "[42]", "value": -0.537},
      {"measurement": "glycan array binding signal (z-score)", "setting": "[43]", "value": -0.178},
      {"measurement": "glycan array binding signal (z-score)", "setting": "[44]", "value": -0.203},
      {"measurement": "glycan array binding signal (z-score)", "setting": "[45]", "value": 0.178}
    ]}
  ]
}
